Test results reported in the supplement of paper PMC3334620.
Over roughly 33,000 sequences, “E-score (-0.5 to 0.5)” has its median near -0.016; the highest 2% begin near 0.31. This is one part of the list.

Biological target: Cst6 (UniProt P40535)
Assay: PBM E-score (8-mer binding enrichment) (E-score (-0.5 to 0.5)); higher = stronger / more preferred TF binding; most listed sequences are background and not binding sites
Conditions: protein concentration: 200 nM; construct: GST-DNA-binding domain
Summary of the method: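 Full-length yeast transcription factors or their DNA-binding domains, GST-tagged and expressed with PURExpress, were applied at about 100-200 nM to universal all-10-mer Agilent arrays. These arrays had been made double-stranded by primer extension on fresh or once-stripped slides. Detection used fluorescent anti-GST, normalisation used masliner, and E-scores for ungapped eight-base words pooled with reverse complements came from the Universal PBM Analysis Suite.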

Sequence | PBM E-score
CTGTTTAA | 0.0885
GAGTGACC | -0.205
GGCAATTA | 0.14
AAGGGCAG | -0.215
ACAGTAAA | 0.131
GGATTGGA | -0.0686
CGACTTAC | -0.279
ATGGTTAC | 0.25
CGCCACCA | -0.0362
GCGTAACC | 0.14
CATATAGC | 0.105
TATAACGA | 0.167
ATCGGCTA | -0.138
CCCACCTA | -0.038
ACGAGTGC | 0.0193
ACTAAACC | -0.0376
CCGTTGAA | -0.0898
CAGAATCC | -0.0985
CGTCACAC | 0.414
CCCTCCAC | -0.164
CAGCAGGG | -0.276
GATATCCA | 0.129
ATCAAAAA | 0.208
CGTGACTC | -0.1
ATAAGACG | 0.0243

Sequence | PBM E-score
ACCGCGCG | 0.231
TATCCTGA | 0.082
ATTACCAG | 0.0801
ACATCTCA | 0.0795
TTCTAGAA | 0.181
ACAACTGG | -0.19
ACGGGTCC | -0.278
CGGGCCGC | -0.106
AGCAGGCG | -0.163
GACGTTGA | 0.24
GCACAGGC | -0.153
CAGACGGC | 0.101
TACAAAAA | 0.206
AACATTAG | -0.0121
CTCAGCTA | -0.0723
AGAAACTA | 0.0177
TATGAGAA | 0.0584
AGGAACAT | 0.0038
CGGTGCAA | -0.202
TGCCGCAA | 0.18
CTCACCAG | -0.0631
ACCAAGTC | -0.123
CCCCGACA | -0.156
AATTCCGT | 0.175
CAATTCAC | 0.167

Sequence | PBM E-score
TGAGCACA | 0.0767
ACGTACCT | -0.0969
CCTCACGC | 0.22
ACGCATGA | 0.104
CGAGATAC | 0.216
GAAATACA | 0.135
GTGGTCAA | -0.128
AAGAAGAG | 0.00635
CTCTGGGA | -0.311
AGTCCACC | -0.262
AGTGGGCA | 0.00486
ACCATGGA | -0.216
CGTGTCTA | 0.152
GCGTGGAC | -0.171
GCGACGCA | 0.0151
TGTACTAA | 0.0422
ACGCGAAC | -0.0701
CGGGCTAC | -0.221
AGCTTTTA | 0.0862
CTAACTGA | 0.124
GATCAATA | 0.185
CGTCCACG | 0.114
CAAGTAGC | -0.0762
ATAATTCG | 0.155
AATAGCAT | 0.0947

Sequence | PBM E-score
AGCTCTGA | -0.0909
AGACGACC | -0.197
AAAGAAAG | 0.0919
AGCGACCT | -0.179
GCTAGTCC | -0.234
AATTCTCA | 0.125
AGGTGGAG | -0.172
CGATGCGA | -0.0133
GAAACAAA | 0.17
CTAGCTAG | -0.074
AACCAGGT | -0.2
ACTTTCGC | 0.0588
AGGGCCGC | -0.156
AACCGCGC | 0.0974
GAAGTTCA | -0.0392
CGAGTATC | -0.229
GCGCCAGC | -0.294
ACAGGGGG | -0.355
AAATGGAT | -0.0183
ATCCCGGA | -0.249
CAACCAGC | -0.203
GGCTGATA | -0.0787
AGGAGCGC | -0.229
ACGAGCGG | 0.0814
GTACGGAC | 0.0382

Sequence | PBM E-score
GAATTACC | 0.0861
GGCTGCCC | -0.361
ATCGTGGC | 0.0366
GGGGATTA | -0.0687
TGCAAAAA | 0.133
ATTTCTCG | 0.242
CCGGTTGA | -0.078
CGTCAAAG | 0.118
CCTTATAA | 0.0921
TCAGCGGA | -0.0381
GTGTGGGA | -0.128
CATTCATC | 0.112
CGAAAACG | 0.111
AATATGTG | 0.25
CACAGTCA | -0.113
ACGTACCC | 0.156
CGTTTCAG | 0.0741
AGCATGAG | 0.0502
CATTTACC | 0.133
ACAACTCG | -0.0364
ATCGAACC | 0.00079
ACAGTACC | -0.101
CCAAAAGC | -0.0501
CAGGCATC | -0.213
AGCATACC | 0.0269

Sequence | PBM E-score
AGGATTAT | -0.144
GCCTTATA | 0.0324
AATGATCT | 0.215
CGGATGGA | -0.101
GACGTCGC | 0.236
CATGGGCC | -0.185
CCCAACTC | -0.0198
CAAGGTTC | -0.155
AAAACCTT | -0.0497
GACAAGAA | 0.21
AAAAGATG | 0.26
CAGAACCA | -0.148
CCGAGATC | -0.143
GATCGTAA | 0.0065
AACGCGAT | 0.00529
ATTAGAAT | 0.164
CGCCAGAG | -0.259
CTGCAAAA | 0.0651
ACGCATTG | 0.152
ATTACAGC | 0.0458
ACCGCGGT | -0.095
CCCTTCCG | -0.274
ATATATCC | 0.275
AGGTAGAT | -0.162
CATTAGGA | -0.0471

Sequence | PBM E-score
GGGTGGAA | -0.0697
GGTCGTAC | -0.368
GAAGACTC | -0.142
TATTAAAA | 0.323
GTGCTGAA | -0.12
GTCCCGAC | -0.167
ACCGACGA | -0.0237
ATATCGGC | 0.0277
CTATCCTC | -0.198
TACCAGTA | 0.105
GGAAGTAC | -0.173
ATCGAGGC | 0.00232
ACGCCCGC | -0.0752
AACTTTCG | 0.0454
CAACGATG | 0.0278
GATGACAC | 0.286
AATGGATA | -0.0788
AGGAAAAG | 0.0926
CCCTCTGA | -0.136
GTCTGTCA | 0.0315
CATCGTCA | 0.372
GTGGGCCA | -0.128
GTTCAGCA | -0.0502
ACTGTTAA | 0.162
CTCTAGAG | -0.334

Sequence | PBM E-score
AACAGTAA | -0.00645
AATCTGCG | -0.0502
ACTAGAGT | 0.0316
AAAAAGTA | 0.229
CCCTTTAC | -0.0551
ACAGCTCT | -0.195
TAACTCGA | 0.186
AACTTGTC | 0.0387
CAGTAGCG | -0.135
CTAGGTAA | -0.148
ACCGCTAG | -0.244
AAACGAGG | 0.0309
ACACGTGA | 0.172
TATATTAA | 0.336
ACTGCGAC | -0.153
CACCTGCC | 0.0858
AGATGTAT | -0.0587
ACAGAATC | -0.077
ACCTGGTG | -0.162
AAAGGAGT | -0.00521
AATCGCGG | 0.0102
GGTCCAAC | -0.239
GACTGAAC | -0.182
CGTCAGGA | 0.238
GATGTACA | 0.0922

Sequence | PBM E-score
AATCCTGT | 0.155
CAAGCTCA | -0.225
AGCGGTGG | -0.262
CGATTATA | 0.0906
AAGTCCTC | -0.197
AAAGCGGC | 0.151
CTCTCTTA | 0.0389
CGAAGTTA | 0.11
ACTTTAAA | 0.201
AGACGTGG | -0.0806
AGTGCTCA | -0.115
ACCGAGGT | -0.217
CGAATAAC | 0.0736
GTGTTCAA | -0.0442
GAGCCAGC | -0.299
CCTCACCG | -0.172
CCCCCGAC | -0.275
ATAGAGAG | -0.225
TGTTGCAA | 0.197
TATGAGCA | -0.00511
GGTATACC | -0.00558
CACCGAGC | 0.0117
GGGGACCA | -0.054
AGTGTTCC | -0.0343
CCATGCAC | -0.124

Sequence | PBM E-score
ACTTTTCC | 0.158
CGTTATTC | 0.0393
AGCATGTA | -0.157
GCTGAGAA | -0.143
CTTATGAC | 0.368
GAATTCGA | 0.0181
GGACTCAA | -0.222
ATAACGAG | -0.0387
GGAACGCA | -0.112
CACTTAGA | 0.0716
GTAACAGA | 0.138
CGTTACAA | 0.135
CCCGCGAC | -0.209
AGTTAGCG | 0.0693
CAAGCCCC | -0.293
GAGCGGCA | 0.18
CAGTGACA | 0.248
ATATAAAT | 0.321
AACCCAAA | 0.143
ACTAGCTG | 0.0222
CCCGGCAG | -0.345
CAAGGATC | -0.012
ACTAGATC | -0.0949
ATGCGTGG | -0.254
ACCTAACG | 0.0849

Sequence | PBM E-score
ATCCGTGA | -0.0022
ATCTAAGG | -0.0239
GACCTCGA | -0.0871
TTGAACAA | 0.00179
AAAGTGTA | 0.144
TCGCTTAA | 0.0628
AGACCGTA | -0.199
ATGACGCG | 0.463
CTCACTTA | 0.0557
CGCCCTAG | -0.132
AACTGTCC | -0.28
CACGTGGA | 0.0156
CTCGTAAA | -0.0847
CATGTTTC | 0.214
TGATTGAA | 0.124
ATTTATCA | 0.227
AGGCCCGA | -0.344
ACGAAAGA | 0.188
CATCCGGA | -0.0898
ACCCACCA | -0.0825
ATGTCGAA | 0.037
GGGGCGGA | -0.298
TACACTCA | 0.124
AATGAATG | 0.27
AGACTCAA | -0.0859

Sequence | PBM E-score
CTAAAACA | 0.135
CCTCGGTC | -0.348
CATTAGAG | -0.0644
CTTAGAAC | 0.0812
TGTTTTAA | 0.17
CGAATGGA | 0.135
CATACACA | -0.0117
AATTAAAA | 0.187
ATTCCCGA | -0.19
ACGTTTAC | 0.0397
CCTCTTTC | -0.233
GTCCACCA | -0.221
CAGTTTGG | -0.179
GCGTGAGC | 0.0338
CATTACAC | 0.198
GGTTCTAA | 0.104
CGATATGC | 0.0678
CTCTAACA | 0.00241
AAGTGGCG | 0.207
CATTCTGG | -0.0615
CTGAAGGA | -0.271
AGTAGTCC | -0.194
CTCTAGTA | 0.0659
AATTCTTC | 0.181
ACCACGAT | 0.157

Sequence | PBM E-score
GCTCGTGA | 0.0506
ATTTGTGC | 0.0185
CCACCTGG | -0.252
ATGTTTCG | 0.263
CGTGGTAA | 0.00542
ACCGCTAT | -0.128
TAAGGAGA | 0.0146
ATCCACCG | -0.0635
CCCTTGAA | -0.148
ACTTTGGG | -0.0539
AAGGTACG | 0.0548
CAGACTGC | 0.0252
GTGAATGA | 0.183
TCTAAGAA | 0.241
ACAATTAC | 0.249
AGACCGCG | -0.0358
ACTCGTAG | -0.251
GCCAGCGC | -0.223
AACCCCTA | -0.195
AGAGATAG | 0.0685
GCCGGGCA | -0.274
ATACTTGA | -0.0602
ACTGGTTG | -0.013
AGTCAGAC | -0.193
GAAAATGC | -0.0295

Sequence | PBM E-score
CAGATACC | -0.076
AGCCGATC | -0.059
CCTATCAG | -0.144
ATCAACGG | 0.256
GCAATGCA | 0.0147
AGAGCCTG | -0.0561
CGCAGAGC | -0.0408
CTAACTGC | -0.0744
AACCCCCC | -0.397
ATGCCCCC | -0.258
GCATCTTA | 0.15
CCTATGCG | -0.0868
AACCGTCG | -0.00516
ATCCCGCA | -0.056
CATCGTGC | 0.0698
AAAAGCGA | 0.00806
GTCCTTGA | -0.0279
ATTATAAG | 0.182
GCTTAGGA | -0.207
